These results are taken from PMC4336329 (PLoS ONE, 2015).

Structures are written as SMILES. In all, about 310,000 compounds went through this assay and about 2,200 (0.71%) showed an effect of 50% or more. Effects have a minus sign here. Some of the results follow.

The target of this assay is human ether-à-go-go-related gene (hERG) potassium channel (human, UniProt Q12809). Nature of the assay: primary screen, population patch clamp on CHO cells stably expressing hERG.
Sequence of human ether-à-go-go-related gene (hERG) potassium channel (Q12809 whole entry, looked up): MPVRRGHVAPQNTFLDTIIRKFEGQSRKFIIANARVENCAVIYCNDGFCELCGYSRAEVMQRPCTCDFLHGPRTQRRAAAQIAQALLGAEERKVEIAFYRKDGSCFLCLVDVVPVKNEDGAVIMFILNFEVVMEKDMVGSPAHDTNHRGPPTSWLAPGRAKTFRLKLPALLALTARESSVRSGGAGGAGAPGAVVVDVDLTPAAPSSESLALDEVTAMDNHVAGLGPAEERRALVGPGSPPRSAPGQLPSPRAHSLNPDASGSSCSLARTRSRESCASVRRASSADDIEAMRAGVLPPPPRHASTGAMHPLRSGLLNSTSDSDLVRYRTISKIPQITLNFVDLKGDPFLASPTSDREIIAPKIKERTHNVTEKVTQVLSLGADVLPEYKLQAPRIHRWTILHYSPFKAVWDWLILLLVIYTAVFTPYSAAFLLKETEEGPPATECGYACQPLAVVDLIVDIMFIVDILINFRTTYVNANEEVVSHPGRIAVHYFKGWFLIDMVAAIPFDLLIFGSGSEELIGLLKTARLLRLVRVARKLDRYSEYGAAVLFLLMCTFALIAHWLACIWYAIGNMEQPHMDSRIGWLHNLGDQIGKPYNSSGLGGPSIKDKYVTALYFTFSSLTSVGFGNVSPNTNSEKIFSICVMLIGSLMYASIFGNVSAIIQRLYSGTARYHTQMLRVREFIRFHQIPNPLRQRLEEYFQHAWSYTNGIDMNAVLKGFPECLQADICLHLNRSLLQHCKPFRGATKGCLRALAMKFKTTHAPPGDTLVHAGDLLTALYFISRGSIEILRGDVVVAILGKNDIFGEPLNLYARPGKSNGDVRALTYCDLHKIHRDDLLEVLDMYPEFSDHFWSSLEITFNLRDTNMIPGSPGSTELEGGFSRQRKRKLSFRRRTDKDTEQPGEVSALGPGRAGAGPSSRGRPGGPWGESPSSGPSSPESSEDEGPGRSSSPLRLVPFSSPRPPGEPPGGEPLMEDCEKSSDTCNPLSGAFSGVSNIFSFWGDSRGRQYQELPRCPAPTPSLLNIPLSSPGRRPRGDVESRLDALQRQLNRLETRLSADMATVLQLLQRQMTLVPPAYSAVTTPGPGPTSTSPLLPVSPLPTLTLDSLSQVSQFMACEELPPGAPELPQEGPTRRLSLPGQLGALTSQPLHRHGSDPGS
On to `CCC(C)[C@H](NC(=O)N1CCn2c1nc1ccccc12)C(=O)NCc1ccc(OC)cc1` (stereo partly drawn), for which the “hERG current change (%, negative = inhibition) at 1uM” value came out at 13.6%.

Consider `Cn1c(=O)c2c(nc(SCC(=O)NCc3ccc4c(c3)OCO4)n2Cc2ccc(F)cc2)n(C)c1=O`, for which the “hERG current change (%, negative = inhibition) at 1uM” value is recorded as -15%. To `Cc1sc2ncnc(Nc3ccc(O)cc3)c2c1C` belongs 4.65%; to `COc1ccc([N+](=O)[O-])cc1NC(=O)C1(c2ccc(OC)c(OC)c2)CCOCC1`, 5.21%; to `Cc1ccc(N(CCCCN2C(=O)c3ccccc3C2=O)C(=O)c2cccs2)cc1`, -11%. To `O=C(NCc1ccco1)c1cc(-c2ccco2)on1` belongs 13.8%. In the case of `COC(=O)c1ccc2c(=O)n(CCN3CCOCC3)c(SCC(=O)Nc3cccc(OC)c3)nc2c1`, the “hERG current change (%, negative = inhibition) at 1uM” value is recorded as 5.05%.

For the compound `O=C(Cc1c[nH]c2ccccc12)NCc1ccco1`, the “hERG current change (%, negative = inhibition) at 1uM” value was found to be 5.99%. To `Cc1cc(C)n(-c2ccc(C(=O)N3CCN(S(=O)(=O)c4ccc(C(C)C)cc4)CC3)cc2)n1` belongs -10.6%; to `O=C(Oc1cccc(-n2cnnn2)c1)c1sc2ccccc2c1Cl`, 15.9%; to `CSCC[C@H](NC(=O)COc1ccc(Cl)cc1)c1nc2ccccc2[nH]1`, -3.74%.

Take `Cn1c(NCC2CCCO2)nc2c1c(=O)n(Cc1ccccc1)c(=O)n2C` (stereo not drawn): the “hERG current change (%, negative = inhibition) at 1uM” value is listed as 8.7%. As for `COc1cccc(NC(=S)N2CCn3cccc3C2c2cccnc2)c1` (stereo not drawn), the “hERG current change (%, negative = inhibition) at 1uM” value is on record as 1.43%.

In the case of `C#CC(=O)N(c1cccc(OC)c1)C(C(=O)NC1CCCC1)c1cccs1` (stereo not drawn), the “hERG current change (%, negative = inhibition) at 1uM” value was -1.47%. In the case of `Cc1oc(-c2ccc(Cl)cc2)nc1CN1CCC(C(=O)NCc2cccnc2)CC1`, the “hERG current change (%, negative = inhibition) at 1uM” value was -29.8%. Next, `COc1ccc(N=C2CCS(=O)(=O)c3sccc32)cc1`: 14.8%; `COc1cccc(C(=O)NCCS(=O)(=O)N(C)Cc2ccccc2)c1`: -0.609%. Next, `Cc1ccc(S(=O)(=O)N2[C@@H](c3ccc(Cl)cc3)C(C(=O)O)=CC[C@H]2c2ccc(Cl)cc2)cc1`: 6.49%; `Cn1c(SCC(=O)Nc2ccc(F)cc2)nnc1C1CC1`: 14.2%. Take `O=C(NCCNc1ccc([N+](=O)[O-])cc1C(F)(F)F)c1ccccc1F`: the “hERG current change (%, negative = inhibition) at 1uM” value is 4.97%.

Regarding `CC(=O)N1CCN(CCN2C(C)=CC(=C(C#N)C#N)C=C2C)CC1`, the “hERG current change (%, negative = inhibition) at 1uM” value is listed as 8.09%.

`Cc1cnc(=O)[nH]c1SCC(=O)c1ccc(F)cc1`: the “hERG current change (%, negative = inhibition) at 1uM” value is given as 11.2%. To `CCOC(=O)C1(Cc2ccccc2C(F)(F)F)CCN(C2CCSC2)CC1` (stereo not drawn) belongs -2.49%; to `CC(=O)c1c(C)[nH]c(C(=O)NCc2ccccc2)c1C`, 6.97%; to `O=C(Cc1c(F)cccc1Cl)NCCN1CCOCC1`, 9.84%. For the compound `CC1CC(Nc2ccccc2N)=CC(=O)O1` (stereo not drawn), the “hERG current change (%, negative = inhibition) at 1uM” value was 10%.

Regarding `Cc1nnc(SCC(=O)N(C)C2CCCCC2)n1C`, the “hERG current change (%, negative = inhibition) at 1uM” value is listed as 8.19%. For the compound `CSc1ncccc1C(=O)NCCc1ccc(Cl)cc1`, the “hERG current change (%, negative = inhibition) at 1uM” value is reported as 20.6%. Next, `CCCCC(=O)Nc1ccc(Br)cc1C(=O)O`: 1.43%; `COc1ccc(N(CCC#N)S(=O)(=O)c2ccc(Cl)cc2)cc1`: 6.94%.

Consider `CCC(C)NC(=O)C(Sc1ccccc1)c1ccccc1` (stereo not drawn), for which the “hERG current change (%, negative = inhibition) at 1uM” value is recorded as 12.4%. On to `Cc1cccc(NC(=O)CS(=O)(=O)c2cn(CC(=O)N3CCOCC3)c3ccccc23)c1`, for which the “hERG current change (%, negative = inhibition) at 1uM” value was 5.2%. To `CC1(C2CC2)NC(=O)N(CC(=O)N2CCN(c3ccccc3)CC2)C1=O` (stereo not drawn) belongs 7%; to `CC(C)C(CO)N1CCN(Cc2ccccc2)CCC1=O` (stereo not drawn), 5.63%; to `Oc1ccc(C(=S)N2CCCCC2)cc1`, 13%. To `CC(C)(C)c1ccc(/C=N/OCC(=O)NCc2ccccc2)cc1` belongs -0.192%. Turning to `CCN1C(=O)C(=O)N(CC(=O)Nc2cc(C)ccc2C)C1=O`, the “hERG current change (%, negative = inhibition) at 1uM” value was 2.79%. With `O=S(=O)(N/N=C\c1ccc2c(c1)OCO2)c1ccc(Cl)cc1`, the “hERG current change (%, negative = inhibition) at 1uM” value is -14.6%.

For the compound `COc1ccc(S(=O)(=O)N2CCCCCC2)cc1C(=O)N(C)Cc1ccco1`, the “hERG current change (%, negative = inhibition) at 1uM” value was -1.44%. To `CCC(=NCc1ccco1)c1c(O)n(C2CCCCC2)c(=O)[nH]c1=O` belongs 6.29%; to `COc1ccc(-c2nn(CCC#N)cc2C(=O)Nc2cccc(C(=O)O)c2)cc1[N+](=O)[O-]`, 12.4%; to `Cc1ccc(NC(=O)c2ccc(S(=O)(=O)N3CCCCC3)cc2)nc1`, 4.76%.

As to `O=C(NC(=S)Nc1ccccn1)c1cc(-c2ccccc2)nc2ccccc12`, the “hERG current change (%, negative = inhibition) at 1uM” value is 16.5%. Next, `C[N+]12CCC(CC1)C(C(O)(c1ccccc1)c1cccs1)C2.[I-]` (stereo not drawn): 2.17%; `Cc1ccc2nsnc2c1NC(=O)Cc1ccc(Cl)cc1`: 16.7%; `COC(=O)c1c(C)[nH]c(C(=O)C(C)OC(=O)C2CC(=O)N(CCc3ccccc3)C2)c1C` (stereo not drawn): 9.56%. To `CN(C)CCNC(=O)/C(=C/c1cccc([N+](=O)[O-])c1)NC(=O)c1ccccc1` belongs -28.6%; to `C/C(=N\NC(=O)c1cc(-c2cccnc2)nc2ccccc12)c1ccc(O)cc1O`, 1.88%; to `Cn1nnnc1SCc1ccccc1[N+](=O)[O-]`, 5.51%.

As to `CN(C)S(=O)(=O)c1ccc(C(=O)OCc2ccc([N+](=O)[O-])cc2)cc1`, the “hERG current change (%, negative = inhibition) at 1uM” value was found to be 22.1%. As to `O=C(Cc1ccc(Br)cc1)Nc1cccc(Cl)c1`, the “hERG current change (%, negative = inhibition) at 1uM” value is given as 4.23%.

For `COc1cc(/C=C/C(=O)OCC(=O)N2CCC(Cc3ccccc3)CC2)ccc1O`, the “hERG current change (%, negative = inhibition) at 1uM” value is listed as 12.5%.

For `Cc1ccc(CC2SC(=O)NC2=O)cc1Cl` (stereo not drawn), the “hERG current change (%, negative = inhibition) at 1uM” value is reported as 11.2%. With `O=C(Nc1ccc(SC(F)F)cc1)c1ccc2c(=O)n3c(nc2c1)CCC3`, the “hERG current change (%, negative = inhibition) at 1uM” value is reported as -2.51%. Next, `CS(=O)(=O)N(CC(=O)NCCSCc1cccc(Cl)c1)c1ccc(F)cc1`: 8.25%. Next, `COc1ccccc1N1CCN(C(=O)CCc2ccc(S(=O)(=O)NC(C)C)cc2)CC1`: -2.65%; `CCN(c1ccccc1)S(=O)(=O)c1ccc(Cl)c(NC(=O)COC(=O)c2cccc(OC)c2O)c1`: 5.6%.

Consider `CC1(C)CC(=O)C(CC2=C(O)CC(C)(C)CC2=O)=C(O)C1`, for which the “hERG current change (%, negative = inhibition) at 1uM” value is 0.0164%.

Regarding `Cc1ccc(CNC(=O)CCC(=O)N2CC(C)Oc3ccc(Cl)cc32)cc1` (stereo not drawn), the “hERG current change (%, negative = inhibition) at 1uM” value is listed as -28.1%. Regarding `COc1ccc(NC(=O)c2c(NC(=O)CNCc3ccco3)sc3c2CCC3)c(OC)c1`, the “hERG current change (%, negative = inhibition) at 1uM” value is on record as 9.6%. To `CCCCN(CC)CCNC(=O)c1cn(C)c(=O)c2c1c1ccccc1n2C` belongs 10.3%. To `CS(=O)c1ccccc1COC(=O)Nc1cccc(Cl)c1` (stereo not drawn) belongs -14.7%.

Regarding `CCN(Cc1ccccc1)C(=O)CCc1nnc(CCCc2ccccc2)o1`, the “hERG current change (%, negative = inhibition) at 1uM” value is 12.2%.

On to `CCc1ccc(NC(=O)[C@H](Cc2c[nH]c3ccccc23)NC(=O)[C@@H]2Cc3ccccc3CN2)cc1`, for which the “hERG current change (%, negative = inhibition) at 1uM” value turned out to be 6.43%. Next, `CC(C)(C)c1ccc(S(=O)(=O)Nc2ccc(Cc3ccncc3)cc2)cc1`: 0.464%. To `CCC(C)NC(=O)c1ccccc1NC(=O)/C(=C/c1ccc(OC)cc1)c1ccccc1` (stereo not drawn) belongs 4.34%; to `COC(=O)c1cn(-c2ccccc2)nc1-c1ccc(OC)cc1`, 12.2%; to `Cc1cccc(C)c1NC(=O)CNC(=O)c1ccncc1`, 10.5%. Next, `CCCOc1ccc(Cn2c(O)cc(=O)[nH]c2=O)cc1`: 8.04%. For `COc1cc(NS(=O)(=O)c2ccc(NC(=S)NC(=O)C(C)(C)C)cc2)nc(OC)n1`, the “hERG current change (%, negative = inhibition) at 1uM” value is -2.53%.

With `CCOc1ccc(N2C(=O)NC(Cc3c[nH]c4ccccc34)C2=O)cc1` (stereo not drawn), the “hERG current change (%, negative = inhibition) at 1uM” value came to 1.64%. As for `Cc1ccnc(NC(=O)c2ccc(N3C(=O)CCC3=O)cc2)c1`, the “hERG current change (%, negative = inhibition) at 1uM” value worked out at 12.7%. Next, `CCOC(=O)N1CCC(Nc2ccc3nnc(-c4ccccc4)n3n2)CC1`: -29.9%; `CN(C)CCN(C(=O)c1ccccc1Cl)c1nc2c(Cl)cccc2s1.Cl`: 25.5%. Next, `COC(=O)c1cccc(S(=O)(=O)N2CCC(NC(=O)Nc3cccc(F)c3)CC2)c1`: -2.19%; `O=c1[nH]cnc2sc(-c3ccccc3)cc12`: 6.92%; `Cc1ccc(-c2c(NC(=O)C(C)C)n(C)c3ccccc3c2=O)cc1`: 9.31%.

Take `COc1cccc(CC(=O)Nn2c(C)nc3ccccc3c2=O)c1`: the “hERG current change (%, negative = inhibition) at 1uM” value is reported as -5.12%. On to `CCc1cccc(NS(=O)(=O)c2ccc3c(c2)CCC(=O)N3)c1`, for which the “hERG current change (%, negative = inhibition) at 1uM” value is 1.27%. Next, `CCOc1cc(C(=O)OC(C)C(=O)Nc2ccc(S(N)(=O)=O)cc2)ccc1OCC(=O)N1CCOCC1` (stereo not drawn): 1.09%; `O=C(CSc1nc2cc(S(=O)(=O)N3CCOCC3)ccc2o1)NC1CCCc2ccccc21` (stereo not drawn): 6.91%; `COc1ccc(CNC(=O)CS(=O)CC(=O)O)cc1OC` (stereo not drawn): 8.89%. Next, `CC(=O)Oc1ccc(N2C(=O)C3C(C2=O)C2C=CC3C23CC3)cc1[N+](=O)[O-]` (stereo not drawn): 10.6%. Next, `CCOC(=O)c1cc[nH]c1CC(=O)NC`: 7.15%; `COc1cccc(NC(=O)CN(C)C(=O)c2ccc(N3CCOCC3)c([N+](=O)[O-])c2)c1`: 7.24%. For the compound `CC(=O)Nc1ccc(NC(=O)c2c(C)nc3ccccn23)cc1`, the “hERG current change (%, negative = inhibition) at 1uM” value worked out at 19.9%.

Take `O=C(N/N=C/c1cc([N+](=O)[O-])ccc1O)NC12CC3CC(CC(C3)C1)C2`: the “hERG current change (%, negative = inhibition) at 1uM” value is 13.9%.
